Source: publication PMC6302113
No constants are given. Whether binding was seen depends on the method and setting. Binding seen in cells or lysates may run through a third protein. Some results given as binding are weak or reduced against the parent protein; the word gives no strength. Where a sequence is shown, tags or fusion partners need not be part of it.

Protein sequences, listed by entry. Tags and fused reporters are not part of them. Residues count along the entry.
UniProt P14625, residues 22-803: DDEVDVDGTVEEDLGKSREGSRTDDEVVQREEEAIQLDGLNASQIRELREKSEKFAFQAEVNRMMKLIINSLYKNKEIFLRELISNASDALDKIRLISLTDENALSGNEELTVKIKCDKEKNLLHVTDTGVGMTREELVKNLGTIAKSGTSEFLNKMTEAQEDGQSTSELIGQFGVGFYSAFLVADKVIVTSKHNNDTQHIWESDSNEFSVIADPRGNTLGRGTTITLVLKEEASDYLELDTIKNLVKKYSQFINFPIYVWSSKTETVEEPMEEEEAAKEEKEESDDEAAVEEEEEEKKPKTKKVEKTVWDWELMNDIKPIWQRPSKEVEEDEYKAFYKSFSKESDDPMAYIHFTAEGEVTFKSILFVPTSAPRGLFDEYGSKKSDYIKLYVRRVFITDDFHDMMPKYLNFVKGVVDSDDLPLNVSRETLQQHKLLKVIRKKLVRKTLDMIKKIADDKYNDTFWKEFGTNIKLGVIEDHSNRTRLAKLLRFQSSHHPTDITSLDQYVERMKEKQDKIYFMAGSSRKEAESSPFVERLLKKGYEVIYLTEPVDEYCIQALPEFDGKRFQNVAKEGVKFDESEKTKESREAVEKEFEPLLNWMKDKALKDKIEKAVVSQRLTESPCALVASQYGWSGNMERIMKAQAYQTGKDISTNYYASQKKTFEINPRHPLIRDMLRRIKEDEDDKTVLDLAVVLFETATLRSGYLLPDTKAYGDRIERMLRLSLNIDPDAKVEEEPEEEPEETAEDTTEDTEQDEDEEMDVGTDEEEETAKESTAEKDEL
UniProt Q9UBS4, residues 23-358: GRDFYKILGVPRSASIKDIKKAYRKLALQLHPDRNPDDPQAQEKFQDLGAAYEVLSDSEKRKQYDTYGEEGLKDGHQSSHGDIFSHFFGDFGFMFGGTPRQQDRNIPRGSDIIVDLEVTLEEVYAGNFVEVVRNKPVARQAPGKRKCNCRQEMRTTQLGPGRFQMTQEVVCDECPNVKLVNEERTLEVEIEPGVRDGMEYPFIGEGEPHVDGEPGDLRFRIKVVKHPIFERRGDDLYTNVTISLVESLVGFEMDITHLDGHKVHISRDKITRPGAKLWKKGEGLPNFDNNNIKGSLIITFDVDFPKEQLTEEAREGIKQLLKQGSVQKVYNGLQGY
UniProt P11021, residues 19-654: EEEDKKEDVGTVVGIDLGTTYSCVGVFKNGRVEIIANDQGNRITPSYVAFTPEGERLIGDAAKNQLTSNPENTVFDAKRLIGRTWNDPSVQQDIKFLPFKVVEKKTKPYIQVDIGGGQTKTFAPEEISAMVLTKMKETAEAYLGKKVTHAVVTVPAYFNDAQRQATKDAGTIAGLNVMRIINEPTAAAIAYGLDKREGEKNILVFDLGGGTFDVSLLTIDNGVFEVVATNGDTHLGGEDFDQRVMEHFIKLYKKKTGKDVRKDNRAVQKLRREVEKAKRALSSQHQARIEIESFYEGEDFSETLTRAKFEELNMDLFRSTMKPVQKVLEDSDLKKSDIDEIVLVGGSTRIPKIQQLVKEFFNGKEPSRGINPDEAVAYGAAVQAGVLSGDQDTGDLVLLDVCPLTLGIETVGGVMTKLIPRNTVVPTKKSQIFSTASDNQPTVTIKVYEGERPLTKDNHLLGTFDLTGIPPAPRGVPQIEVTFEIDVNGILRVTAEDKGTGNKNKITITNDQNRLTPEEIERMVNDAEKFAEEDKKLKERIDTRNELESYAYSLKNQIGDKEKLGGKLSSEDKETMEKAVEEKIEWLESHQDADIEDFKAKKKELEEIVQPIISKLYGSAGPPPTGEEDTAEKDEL

T1: IL-22 binding protein isoform-1 (IL-22BPi1), C-terminally myc-FLAG-tagged (human) (UniProt Q969J5)
T1 sequence: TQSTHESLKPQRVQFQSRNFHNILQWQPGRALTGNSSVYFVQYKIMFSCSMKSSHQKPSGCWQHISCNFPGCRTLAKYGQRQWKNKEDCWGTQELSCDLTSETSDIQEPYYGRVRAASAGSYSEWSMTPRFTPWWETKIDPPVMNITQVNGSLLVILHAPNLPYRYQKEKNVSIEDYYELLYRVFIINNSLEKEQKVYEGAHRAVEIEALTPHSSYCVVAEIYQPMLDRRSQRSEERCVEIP

T2: IL-22 binding protein isoform-2 (IL-22BPi2), C-terminally myc-FLAG-tagged (human) (UniProt Q969J5)
T2 sequence: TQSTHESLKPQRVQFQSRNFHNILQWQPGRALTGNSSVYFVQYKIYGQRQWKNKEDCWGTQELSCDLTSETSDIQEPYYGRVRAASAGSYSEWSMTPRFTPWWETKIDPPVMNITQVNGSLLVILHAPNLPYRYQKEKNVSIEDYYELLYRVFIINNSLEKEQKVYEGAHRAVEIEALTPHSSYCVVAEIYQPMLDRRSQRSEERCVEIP

T3: IL-22 binding protein isoform-3 (IL-22BPi3), FLAG-tagged (human) (UniProt Q969J5)
T3 sequence: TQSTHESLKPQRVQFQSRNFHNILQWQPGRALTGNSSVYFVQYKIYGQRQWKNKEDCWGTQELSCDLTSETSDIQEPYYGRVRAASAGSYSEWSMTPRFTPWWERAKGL


What was measured:
[1] = target: T1, IL-22 binding protein isoform-1 (IL-22BPi1), C-terminally myc-FLAG-tagged (human); assay: co-IP; HEK293 transiently co-transfected, lysed after 24 h; FLAG resin to precipitate IL-22BP isoforms or IL-2EX4; immunoblot for GRP94 and FLAG
[2] = target: T1, IL-22 binding protein isoform-1 (IL-22BPi1), C-terminally myc-FLAG-tagged (human); assay: co-IP; anti-FLAG resin from lysates of transiently transfected cells, immunoblot for endogenous ER chaperones (Supplementary Figure 5; Figure 4C: HEK293 treated with 100 ng/ml Mut SubAB or SubAB for 3 h, blot for GRP78)
[3] = target: T2, IL-22 binding protein isoform-2 (IL-22BPi2), C-terminally myc-FLAG-tagged (human); assay: as above
[4] = target: T3, IL-22 binding protein isoform-3 (IL-22BPi3), FLAG-tagged (human); assay: as above
[5] = target: S-tagged GRP94 (UniProt P14625); assay: co-IP; reverse IP: HEK293 transiently co-transfected, lysed after 24 h; S-tag (S-protein) agarose to precipitate S-tagged GRP94; immunoblot for GRP94 and FLAG
[6] = target: T1, IL-22 binding protein isoform-1 (IL-22BPi1), C-terminally myc-FLAG-tagged (human); assay: co-IP; HEK293 co-transfected with myc-FLAG IL-22BPi1 and inducible FLAG-only IL-22BPi2 (Tet-Express activator for 24 h); anti-Myc agarose, then FLAG immunoprecipitation of the flow-through; immunoblot for FLAG

Molecule	binding [2]	binding [3]	also measured
S-tagged GRP94 (from UniProt P14625 22-803)	–	–	binding [1]: binds
ERdj3, endogenous (from UniProt Q9UBS4 23-358)	binds	binds	–
GRP78, full-length endogenous (from UniProt P11021 19-654)	binds	binds	binding [4]: no binding
IL-22 binding protein isoform-3 (IL-22BPi3), FLAG-tagged (protein, UniProt Q969J5-3 22-130) TQSTHESLKPQRVQFQSRNFHNILQWQPGRALTGNSSVYFVQYKIYGQRQWKNKEDCWGTQELSCDLTSETSDIQEPYYGRVRAASAGSYSEWSMTPRFTPWWERAKGL	–	–	binding [5]: no binding
IL-22 binding protein isoform-1 (IL-22BPi1), C-terminally myc-FLAG-tagged (protein, UniProt Q969J5 22-263) TQSTHESLKPQRVQFQSRNFHNILQWQPGRALTGNSSVYFVQYKIMFSCSMKSSHQKPSGCWQHISCNFPGCRTLAKYGQRQWKNKEDCWGTQELSCDLTSETSDIQEPYYGRVRAASAGSYSEWSMTPRFTPWWETKIDPPVMNITQVNGSLLVILHAPNLPYRYQKEKNVSIEDYYELLYRVFIINNSLEKEQKVYEGAHRAVEIEALTPHSSYCVVAEIYQPMLDRRSQRSEERCVEIP	–	–	binding [5]: binds
calnexin, endogenous (protein, UniProt P27824 21-592) HDGHDDDVIDIEDDLDDVIEEVEDSKPDTTAPPSSPKVTYKAPVPTGEVYFADSFDRGTLSGWILSKAKKDDTDDEIAKYDGKWEVEEMKESKLPGDKGLVLMSRAKHHAISAKLNKPFLFDTKPLIVQYEVNFQNGIECGGAYVKLLSKTPELNLDQFHDKTPYTIMFGPDKCGEDYKLHFIFRHKNPKTGIYEEKHAKRPDADLKTYFTDKKTHLYTLILNPDNSFEILVDQSVVNSGNLLNDMTPPVNPSREIEDPEDRKPEDWDERPKIPDPEAVKPDDWDEDAPAKIPDEEATKPEGWLDDEPEYVPDPDAEKPEDWDEDMDGEWEAPQIANPRCESAPGCGVWQRPVIDNPNYKGKWKPPMIDNPSYQGIWKPRKIPNPDFFEDLEPFRMTPFSAIGLELWSMTSDIFFDNFIICADRRIVDDWANDGWGLKKAADGAAEPGVVGQMIEAAEERPWLWVVYILTVALPVFLVILFCCSGKKQTSGMEYKKTDAPQPDVKEEEEEKEEEKDKGDEEEEGEEKLEEKQKSDAEEDGGTVSQEEEDRKPKAEEDEILNRSPRNRKPRRE	binds	binds	–
IL-22BPi2 with only a FLAG tag, from an inducible pTRE3G-based vector (protein, UniProt Q969J5-2 22-231) TQSTHESLKPQRVQFQSRNFHNILQWQPGRALTGNSSVYFVQYKIYGQRQWKNKEDCWGTQELSCDLTSETSDIQEPYYGRVRAASAGSYSEWSMTPRFTPWWETKIDPPVMNITQVNGSLLVILHAPNLPYRYQKEKNVSIEDYYELLYRVFIINNSLEKEQKVYEGAHRAVEIEALTPHSSYCVVAEIYQPMLDRRSQRSEERCVEIP	–	–	binding [6]: no binding

Further lines, with some results ahead:

binding [2]	binding [3]	Molecule	also measured
binds	–	GRP94, endogenous (from UniProt P14625 22-803)	–
binds	binds	GRP170, endogenous (protein, UniProt Q9Y4L1 33-999) LAVMSVDLGSESMKVAIVKPGVPMEIVLNKESRRKTPVIVTLKENERFFGDSAASMAIKNPKATLRYFQHLLGKQADNPHVALYQARFPEHELTFDPQRQTVHFQISSQLQFSPEEVLGMVLNYSRSLAEDFAEQPIKDAVITVPVFFNQAERRAVLQAARMAGLKVLQLINDNTATALSYGVFRRKDINTTAQNIMFYDMGSGSTVCTIVTYQMVKTKEAGMQPQLQIRGVGFDRTLGGLEMELRLRERLAGLFNEQRKGQRAKDVRENPRAMAKLLREANRLKTVLSANADHMAQIEGLMDDVDFKAKVTRVEFEELCADLFERVPGPVQQALQSAEMSLDEIEQVILVGGATRVPRVQEVLLKAVGKEELGKNINADEAAAMGAVYQAAALSKAFKVKPFVVRDAVVYPILVEFTREVEEEPGIHSLKHNKRVLFSRMGPYPQRKVITFNRYSHDFNFHINYGDLGFLGPEDLRVFGSQNLTTVKLKGVGDSFKKYPDYESKGIKAHFNLDESGVLSLDRVESVFETLVEDSAEEESTLTKLGNTISSLFGGGTTPDAKENGTDTVQEEEESPAEGSKDEPGEQVELKEEAEAPVEDGSQPPPPEPKGDATPEGEKATEKENGDKSEAQKPSEKAEAGPEGVAPAPEGEKKQKPARKRRMVEEIGVELVVLDLPDLPEDKLAQSVQKLQDLTLRDLEKQEREKAANSLEAFIFETQDKLYQPEYQEVSTEEQREEISGKLSAASTWLEDEGVGATTVMLKEKLAELRKLCQGLFFRVEERKKWPERLSALDNLLNHSSMFLKGARLIPEMDQIFTEVEMTTLEKVINETWAWKNATLAEQAKLPATEKPVLLSKDIEAKMMALDREVQYLLNKAKFTKPRPRPKDKNGTRAEPPLNASASDQGEKVIPPAGQTEDAEPISEPEKVETGSEPGDTEPLELGGPGAEPEQKEQSTGQKRPLKNDEL	–
